Experimental data from patent US10889573B2, “Anthelmintic quinoline-3-carboxamide derivatives” (Bayer Animal Health GMBH, priority 2016, dated 2021).
Some of these results come from one statement about several compounds together. At least one compound was matched to its structure with a doubt left.

Molecular target: C. elegans Slo-1a (Caenorhabditis elegans, UniProt Q95V25)
Conditions: CHO cells expressing C. elegans Slo-1a, voltage sensitive dye

Chain of C. elegans Slo-1a (Q95V25 whole entry): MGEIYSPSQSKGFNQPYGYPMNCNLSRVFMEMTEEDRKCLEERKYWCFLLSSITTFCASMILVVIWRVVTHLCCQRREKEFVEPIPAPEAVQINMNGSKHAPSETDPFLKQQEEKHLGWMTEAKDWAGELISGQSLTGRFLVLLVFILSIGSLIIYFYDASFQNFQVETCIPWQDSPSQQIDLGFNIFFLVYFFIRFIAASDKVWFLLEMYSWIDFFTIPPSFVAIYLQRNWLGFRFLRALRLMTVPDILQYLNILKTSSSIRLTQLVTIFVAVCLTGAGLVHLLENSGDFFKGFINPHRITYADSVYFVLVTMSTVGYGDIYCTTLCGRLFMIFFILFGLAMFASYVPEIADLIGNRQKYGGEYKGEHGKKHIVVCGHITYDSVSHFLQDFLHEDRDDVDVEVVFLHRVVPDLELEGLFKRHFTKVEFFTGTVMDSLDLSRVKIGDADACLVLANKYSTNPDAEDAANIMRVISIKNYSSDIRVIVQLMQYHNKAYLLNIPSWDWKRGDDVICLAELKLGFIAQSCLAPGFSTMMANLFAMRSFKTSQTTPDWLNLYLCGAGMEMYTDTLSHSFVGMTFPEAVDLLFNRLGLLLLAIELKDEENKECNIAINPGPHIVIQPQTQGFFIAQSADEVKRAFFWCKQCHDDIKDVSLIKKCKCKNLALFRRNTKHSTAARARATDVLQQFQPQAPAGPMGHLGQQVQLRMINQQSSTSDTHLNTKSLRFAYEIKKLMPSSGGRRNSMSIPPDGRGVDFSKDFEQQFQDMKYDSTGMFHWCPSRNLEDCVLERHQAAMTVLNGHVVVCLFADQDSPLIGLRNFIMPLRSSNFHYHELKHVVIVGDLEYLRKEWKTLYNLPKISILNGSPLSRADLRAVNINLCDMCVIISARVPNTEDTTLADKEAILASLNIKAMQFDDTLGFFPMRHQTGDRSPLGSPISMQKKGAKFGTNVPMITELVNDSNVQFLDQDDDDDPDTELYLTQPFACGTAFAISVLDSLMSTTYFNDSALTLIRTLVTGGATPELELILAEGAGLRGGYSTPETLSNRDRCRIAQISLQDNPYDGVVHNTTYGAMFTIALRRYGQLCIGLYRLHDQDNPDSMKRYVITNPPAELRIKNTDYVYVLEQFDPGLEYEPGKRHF

| SMILES | pE50 (negative decadic logarithm of EC50) |
| --- | --- |
| CN(c1c(C(=O)N[C@H]2CCOc3ccccc32)cnc2c(-c3cc(Cl)cc(Cl)c3)cccc12)C1CC1 [Example 254] | > 8,5 |
| COC(=O)[C@@H]1CCCN1c1c(C(=O)N[C@H]2CCOc3ccccc32)cnc2c(-c3cc(Cl)cc(Cl)c3)cccc12 [Example 255] | 7,5-8,5 |
| CN(C)c1c(C(=O)N[C@H]2CCOc3ccccc32)cnc2c(-c3cc(Cl)cc(Cl)c3)c(C(F)(F)F)ccc12 [Example 256] | > 8,5 |
| COC(=O)[C@H]1CCCN1c1c(C(=O)N[C@H]2CCOc3ccccc32)cnc2c(-c3cc(Cl)cc(Cl)c3)cccc12 [Example 263] | 7,5-8,5 |
| CCNc1c(C(=O)N[C@H]2CCOc3ccccc32)cnc2c(-c3cc(Cl)cc(Cl)c3)cccc12 [Example 265] | > 8,5 |
| O=C(N[C@H]1CCOc2ccccc21)c1cnc2c(-c3cc(Cl)cc(Cl)c3)cccc2c1N1CCC[C@H]1C(=O)O [Example 266] | 7,5-8,5 |
| COc1ccc(Cl)cc1-c1cccc2c(N3CCOCC3)c(C(=O)N[C@H]3CCOc4ccccc43)cnc12 [Example 267] | > 8,5 |
| O=C(N[C@H]1CCOc2ccccc21)c1cnc2c(-c3cc(Cl)cc(Cl)c3)cccc2c1NC1CC1 [Example 273] | 7,5-8,5 |
| O=C(N[C@H]1CCOc2ccccc21)c1cnc2c(-c3cc(Cl)cc(Cl)c3)cccc2c1N1CCC[C@@H]1C(=O)O [Example 274] | > 8,5 |
| CN(C)c1c(C(=O)N[C@H]2CCOc3ccccc32)cnc2c(-c3c(F)cccc3F)c(F)ccc12 [Example 279] | > 8,5 |
| O=C(N[C@H]1CCOc2ccccc21)c1cnc2c(-c3cccc4ncoc34)cccc2c1N1CCOCC1 [Example 280] | 7,5-8,5 |
| COC(=O)C1CCN(c2c(C(=O)NC3CCOc4ccccc43)cnc3c(-c4cc(Cl)cc(Cl)c4)cccc23)C1 (stereo not shown) [Example 282] | > 8,5 |
| O=C(N[C@H]1CCOc2ccccc21)c1cnc2c(-c3cc(Cl)cc(Cl)c3)cccc2c1N1CC[C@H](O)C1 [Example 284] | 7,5-8,5 |
| O=C(N[C@H]1CCOc2ccccc21)c1cnc2c(-c3cc(Cl)cc(Cl)c3)cccc2c1N1CCC[C@@H]1CO [Example 288] | 7,5-8,5 |
| CC1(C)C(N)C1Nc1c(C(=O)NC2CCOc3ccccc32)cnc2c(-c3cc(Cl)cc(Cl)c3)cccc12 (stereo not shown) [Example 289] | 6,5-7,5 |
| CN(C)c1cc(Cl)cc(-c2cccc3c(N(C)C)c(C(=O)N[C@H]4CCOc5ccccc54)cnc23)c1 [Example 294] | > 8,5 |
| CN(C)c1c(C(=O)N[C@H]2CCOc3ccccc32)cnc2c(-c3ccccc3)cccc12 [Example 296] | > 8,5 |
| O=C(N[C@H]1CCc2ccccc21)c1cnc2c(-c3cc(Cl)cc(Cl)c3)cccc2c1NCCO [Example 297] | 7,5-8,5 |
| O=C(N[C@H]1CCOc2ccccc21)c1cnc2c(-c3cc(Cl)cc(Cl)c3)cccc2c1N1CC2CC(C1)O2 [Example 300] | > 8,5 |
| O=C(N[C@H]1CCOc2ccccc21)c1cnc2c(-c3cc(Cl)cc(Cl)c3)cccc2c1N1CC2COCC(C1)O2 [Example 301] | 7,5-8,5 |
| CN(C)c1cc(-c2cccc3c(N(C)C)c(C(=O)N[C@H]4CCOc5ccccc54)cnc23)ccc1Cl [Example 307] | > 8,5 |

| SMILES | pE50 (negative decadic logarithm of EC50) |
| --- | --- |
| CN(C)c1c(Cl)cc(-c2cccc3c(N(C)C)c(C(=O)N[C@H]4CCOc5ccccc54)cnc23)cc1Cl [Example 308] | 7,5-8,5 |
| COc1ccc2c(N3CCOCC3)c(C(=O)N[C@H]3CCOc4ccccc43)cnc2c1-c1cccc(Cl)c1Cl [Example 309] | > 8,5 |
| COc1ccc2c(N3CCOCC3)c(C(=O)N[C@H]3CCOc4ccccc43)cnc2c1-c1cc(Cl)cc(Cl)c1 [Example 310] | > 8,5 |
| CN(C)c1ccc(-c2cccc3c(N(C)C)c(C(=O)N[C@H]4CCOc5ccccc54)cnc23)cc1Cl [Example 311] | 7,5-8,5 |
| CNc1cccc(-c2cccc3c(N(C)C)c(C(=O)N[C@H]4CCOc5ccccc54)cnc23)c1 [Example 312] | 7,5-8,5 |
| O=C(N[C@H]1CCOc2ccccc21)c1cnc2c(-c3c(F)cccc3F)cccc2c1N1CCOCC1 [Example 313] | > 8,5 |
| CN(C)c1c(C(=O)N[C@H]2CCOc3ccccc32)cnc2c(-c3cc(Cl)cc(Cl)c3)cc(Cl)cc12 [Example 316] | > 8,5 |
| O=C(N[C@H]1CCOc2ccccc21)c1cnc2c(-c3cc(Cl)cc(Cl)c3)cccc2c1N1CC[C@H](CO)C1 [Example 318] | > 8,5 |
| O=C(N[C@H]1CCOc2ccccc21)c1cnc2c(-c3ccccc3Cl)cccc2c1N1CCOCC1 [Example 319] | 7,5-8,5 |
| Cn1c(=O)n(C)n(-c2c(C(=O)N[C@H]3CCOc4ccccc43)cnc3c(-c4cccc(Cl)c4Cl)cccc23)c1=O [Example 321] | 7,5-8,5 |
| CN(C)c1c(C(=O)N[C@H]2CCOc3ccccc32)cnc2c(-c3cc(Cl)cc(N4CCOCC4)c3)cccc12 [Example 323] | 7,5-8,5 |
| CN(C)c1ccc(-c2cccc3c(N(C)C)c(C(=O)N[C@H]4CCOc5ccccc54)cnc23)c(Cl)c1 [Example 324] | 6,5-7,5 |
| CN(C)c1c(F)cc(-c2cccc3c(N(C)C)c(C(=O)N[C@H]4CCOc5ccccc54)cnc23)cc1Cl [Example 325] | 7,5-8,5 |
| COc1ccc2c(N(C)C)c(C(=O)N[C@H]3CCOc4ccccc43)cnc2c1-c1cccc(Cl)c1Cl [Example 326] | > 8,5 |
| COc1ccc2c(N(C)C)c(C(=O)N[C@H]3CCOc4ccccc43)cnc2c1-c1cc(Cl)cc(Cl)c1 [Example 327] | > 8,5 |
| CN(CCN1CCCC1=O)c1c(C(=O)N[C@H]2CCOc3ccccc32)cnc2c(-c3cc(Cl)cc(Cl)c3)cccc12 [Example 328] | > 8,5 |
| O=C(NC1CCOc2ccccc21)c1cnc2c(-c3cc(Cl)cc(Cl)c3)cccc2c1N1CCC(CO)C1 (stereo not shown) [Example 329] | > 8,5 |
| COc1c(C(=O)N[C@H]2CCOc3ccccc32)cnc2c(-c3cc(Cl)c(F)c(Cl)c3)cccc12 [Example 333] | > 8,5 |
| CCOc1c(C(=O)N[C@H]2CCc3ccccc32)cnc2c(-c3cc(Cl)cc(Cl)c3)cccc12 [Example 334] | > 8,5 |
| CC(C)Oc1c(C(=O)N[C@H]2CCOc3ccccc32)cnc2c(-c3cc(Cl)cc(Cl)c3)cccc12 [Example 335] | > 8,5 |
| O=C(N[C@H]1CCOc2ccccc21)c1cnc2c(-c3cc(Cl)cc(Cl)c3)cccc2c1OC1CCOCC1 [Example 339] | > 8,5 |

| SMILES | pE50 (negative decadic logarithm of EC50) |
| --- | --- |
| O=C(N[C@H]1CCOc2ccccc21)c1cnc2c(-c3cc(Cl)cc(Cl)c3)cccc2c1OCCO [Example 340] | > 8,5 |
| CC(C)(C)CCOc1c(C(=O)N[C@H]2CCc3ccccc32)cnc2c(-c3cc(Cl)cc(Cl)c3)cccc12 [Example 342] | 7,5-8,5 |
| O=C(N[C@H]1CCc2ccccc21)c1cnc2c(-c3cc(Cl)cc(Cl)c3)cccc2c1OCc1cccc(F)c1 [Example 343] | 7,5-8,5 |
| O=C(N[C@H]1CCc2ccccc21)c1cnc2c(-c3cc(Cl)cc(Cl)c3)cccc2c1OCc1cccc(F)c1F [Example 344] | 7,5-8,5 |
| COc1cccc(COc2c(C(=O)N[C@H]3CCc4ccccc43)cnc3c(-c4cc(Cl)cc(Cl)c4)cccc23)c1 [Example 345] | 5,3-6,5 |
| O=C(N[C@H]1CCc2ccccc21)c1cnc2c(-c3cc(Cl)cc(Cl)c3)cccc2c1O[C@@H]1CCNC1 [Example 346] | 6,5-7,5 |
| CC(C)Oc1c(C(=O)N[C@H]2CCc3ccccc32)cnc2c(-c3cc(Cl)cc(Cl)c3)cccc12 [Example 349] | > 8,5 |
| Cc1cc(Cl)cc(-c2cccc3c(C)c(C(=O)N[C@H]4CCOc5ccccc54)cnc23)c1 [Example 352] | > 8,5 |
| Cc1c(C(=O)N[C@H]2CCOc3ccccc32)cnc2c(-c3cc(Cl)cc(Cl)c3)cccc12 [Example 353] | > 8,5 |
| CCCc1c(C(=O)N[C@H]2CCOc3ccccc32)cnc2c(-c3cc(Cl)cc(Cl)c3)cccc12 [Example 356] | > 8,5 |
| C=C(C)c1c(C(=O)N[C@H]2CCOc3ccccc32)cnc2c(-c3cc(Cl)cc(Cl)c3)cccc12 [Example 357] | > 8,5 |
| O=C(N[C@H]1CCOc2ccccc21)c1cnc2c(-c3cc(Cl)cc(Cl)c3)cccc2c1C1CC1 [Example 358] | > 8,5 |
| O=C(N[C@H]1CCOc2ccccc21)c1cnc2c(-c3cc(Cl)cc(Cl)c3)cccc2c1SCCO [Example 364] | > 8,5 |
| CSc1cc(Cl)cc(-c2cccc3c(SC)c(C(=O)N[C@H]4CCOc5ccccc54)cnc23)c1 [Example 365] | > 8,5 |
| CCSc1c(C(=O)N[C@H]2CCOc3ccccc32)cnc2c(-c3cccc(Cl)c3Cl)cccc12 [Example 366] | > 8,5 |
| CCSc1c(C(=O)N[C@H]2CCOc3ccccc32)cnc2c(-c3cc(Cl)cc(Cl)c3)cccc12 [Example 367] | > 8,5 |
| CC[S+]([O-])c1c(C(=O)N[C@H]2CCOc3ccccc32)cnc2c(-c3cccc(Cl)c3Cl)cccc12 (stereo partly shown) [Example 368] | > 8,5 |
| CC[S+]([O-])c1c(C(=O)N[C@H]2CCOc3ccccc32)cnc2c(-c3cc(Cl)cc(Cl)c3)cccc12 (stereo partly shown) [Example 370] | 7,5-8,5 |
| CCS(=O)(=O)c1c(C(=O)N[C@H]2CCOc3ccccc32)cnc2c(-c3cc(Cl)cc(Cl)c3)cccc12 [Example 371] | > 8,5 |
